The whole screen tested about 310,000 compounds, of which about 2,200 (0.71%) showed an effect of 50% or more. The effect is printed as a negative number. This is one part of the list.
Molecular target: human ether-à-go-go-related gene (hERG) potassium channel (human, UniProt Q12809)
Assay: primary screen, population patch clamp on CHO cells stably expressing hERG

Sequence of human ether-à-go-go-related gene (hERG) potassium channel (Q12809 whole entry, looked up): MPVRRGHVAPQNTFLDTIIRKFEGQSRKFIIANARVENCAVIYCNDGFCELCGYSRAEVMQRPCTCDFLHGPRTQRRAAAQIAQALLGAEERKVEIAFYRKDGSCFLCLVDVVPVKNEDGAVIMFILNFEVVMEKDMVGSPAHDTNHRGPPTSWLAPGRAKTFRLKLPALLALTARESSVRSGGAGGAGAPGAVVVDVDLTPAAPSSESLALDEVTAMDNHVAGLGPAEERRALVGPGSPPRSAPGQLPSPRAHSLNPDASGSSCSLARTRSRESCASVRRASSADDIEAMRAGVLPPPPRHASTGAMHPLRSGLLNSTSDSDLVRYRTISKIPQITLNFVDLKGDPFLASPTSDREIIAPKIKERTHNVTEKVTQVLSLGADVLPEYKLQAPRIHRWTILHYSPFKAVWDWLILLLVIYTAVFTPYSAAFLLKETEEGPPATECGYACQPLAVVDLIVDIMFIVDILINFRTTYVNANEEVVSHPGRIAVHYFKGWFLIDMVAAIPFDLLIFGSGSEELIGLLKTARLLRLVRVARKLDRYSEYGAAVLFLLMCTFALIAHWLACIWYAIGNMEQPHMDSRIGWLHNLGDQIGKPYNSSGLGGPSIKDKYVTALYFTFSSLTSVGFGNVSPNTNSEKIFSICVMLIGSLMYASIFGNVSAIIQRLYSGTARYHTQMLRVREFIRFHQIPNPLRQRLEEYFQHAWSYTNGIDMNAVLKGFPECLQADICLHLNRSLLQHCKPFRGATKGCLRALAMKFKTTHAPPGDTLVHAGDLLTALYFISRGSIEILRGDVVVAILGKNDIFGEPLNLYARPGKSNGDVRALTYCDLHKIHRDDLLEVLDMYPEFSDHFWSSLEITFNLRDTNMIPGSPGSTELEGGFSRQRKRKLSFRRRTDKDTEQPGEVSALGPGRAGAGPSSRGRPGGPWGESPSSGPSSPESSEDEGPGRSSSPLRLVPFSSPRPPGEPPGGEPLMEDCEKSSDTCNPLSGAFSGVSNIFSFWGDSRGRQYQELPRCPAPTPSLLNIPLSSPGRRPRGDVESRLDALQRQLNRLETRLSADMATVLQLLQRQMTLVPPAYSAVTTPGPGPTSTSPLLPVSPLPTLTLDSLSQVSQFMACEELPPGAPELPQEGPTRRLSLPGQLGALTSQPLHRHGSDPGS

| Structure (SMILES) | hERG current change (%, negative = inhibition) at 1uM |
| --- | --- |
| COc1ccc(OC)c(N2C(N)=C(C#N)C(c3ccc(OC)c(O)c3)C3=C2CC(C)(C)CC3=O)c1 (stereo not drawn) | 7.15% |
| Cc1cccc(CN2CCc3c([nH]c4ccccc34)C2)c1 | 7.42% |
| CCOC(=O)Cc1csc(NC(=O)C2C3C=CC(C3)C2C(=O)O)n1 (stereo not drawn) | 6.57% |
| COc1cc(C#N)ccc1OC(=O)c1cccc(S(=O)(=O)N2CCN(C)CC2)c1 | -6.24% |
| Cc1ccc(C2=N/C(=C\c3cccc(F)c3)C(=O)O2)cc1 | 9.41% |
| CN(C(=O)COC(=O)c1cc(F)c(F)cc1Cl)c1ccccc1 | 2.57% |
| COc1ccc(CCC(=O)Nc2ccc(S(=O)(=O)N3CCOCC3)cc2)cc1 | 5% |
| O=C(/C=C/c1cccc(F)c1)NC1CCN(Cc2ccccc2)CC1 | -51.4% |
| CCCc1ccc2oc(C(=O)N3CCC(N4CCCC(O)C4)CC3)c(C)c2c1 (stereo not drawn) | 4.07% |
| N#Cc1ccc(/C=C2\CCCCn3c2nc2cc(C(=O)O)ccc2c3=O)cc1 | 20.2% |
| CC(/C=N/Nc1ncc(C)c(=O)[nH]1)=C\c1ccccc1 | -5.06% |
| COc1ccccc1CNS(=O)(=O)c1ccc(-n2cnnn2)c(OC)c1 | -2.73% |
| COc1ccc(NC(=O)CCC(=O)Nc2cc(OC)c(NC(=O)c3cccs3)cc2OC)cc1 | 12.7% |
| Cc1onc(-c2ccccc2)c1-c1ccnc(N)n1 | 7.76% |
| CCOc1ccc(CN(C)C(=O)CNC(=O)C2CCCCC2)cc1OC | 9.71% |
| CCN(CC)/C(=N/O)NC(=O)NS(=O)(=O)c1ccc(C)cc1 | 15.5% |
| CN(C)CCSCc1nnc2n1-c1ccc(Cl)cc1C(c1ccccc1Cl)=NC2.c1ccccc1 | -51.9% |
| Cc1ccc(C(NC(=O)N2CCCC2)C(Cl)(Cl)Cl)cc1F (stereo not drawn) | 17.2% |
| Cc1onc(C(=O)Nc2cccc(C(F)(F)F)c2)c1[N+](=O)[O-] | 4.65% |

| Structure (SMILES) | hERG current change (%, negative = inhibition) at 1uM |
| --- | --- |
| Cc1[nH]c2ccccc2c1C(=O)CSc1nc2ccccc2c(=O)n1CCCN1CCOCC1 | 13.8% |
| COc1ccc(S(=O)(=O)N2CCCCC2C)cc1 (stereo not drawn) | 8.15% |
| Cc1ccc(OCCNCc2ccccc2)c(C)c1.O=C(O)C(=O)O | 10.1% |
| O=C(Nc1ccc([N+](=O)[O-])cc1)C(Cc1ccccc1)N1C(=O)c2cccc3cccc(c23)C1=O (stereo not drawn) | 11.6% |
| S=c1[nH]nc(-c2ccncc2)n1CC1CCCO1 (stereo not drawn) | 16.2% |
| O=C(O)C(=O)O.c1ccc2c(OCCCN3CCCCCC3)cccc2c1 | -10.2% |
| CC1=NNC(=O)C1C(c1ccc(Cl)cc1)C(C#N)C#N (stereo not drawn) | 12.3% |
| Cc1ccc(C(=O)NNC(=O)c2csc(N3CCOCC3)n2)o1 | 18.4% |
| CCOC(=O)C(=NCC1CCCO1)NNc1ccccc1Cl (stereo not drawn) | 11.8% |
| CN(c1ccc(OCC(=O)OCC(=O)NCc2ccco2)cc1)S(=O)(=O)c1ccc2ccccc2c1 | 13.4% |
| Cc1ccc(C2C(C#N)=C3N=C(N)c4ccccc4N3C3=C2C(=O)CCC3)cc1 (stereo not drawn) | 10.5% |
| CNC(=O)c1ccccc1S(=O)c1ccccc1C#N (stereo not drawn) | 3.75% |
| CCCCc1nnc(NC(=O)CSCc2cc(=O)n3ccsc3n2)s1 | 18.1% |
| CCCc1cc(=O)oc2cc(OC(C)C(=O)NCc3ccccn3)c(Cl)cc12 (stereo not drawn) | -1.15% |
| O=C(Nc1ccccc1C(=O)N1CCCCCC1)c1ccccc1Cl | 13.6% |
| O=C(Nc1ccccn1)c1onc2c1CCCC2 | -3.53% |
| O=C(Nc1cccc(Cl)c1)c1cc([N+](=O)[O-])ccc1N1CCN(CCO)CC1 | -7.8% |
| CC(C)c1nnc(NC(=O)c2cc3cc(Br)ccc3oc2=O)s1 | 6.91% |
| COc1ccc(NC(=O)CN(C)C(=O)c2csc3c2CCCC3)cc1 | 5.54% |

| Structure (SMILES) | hERG current change (%, negative = inhibition) at 1uM |
| --- | --- |
| CCN(CC)P(=O)(C(NC(=O)OC)C(F)(F)C(F)(F)C(F)(F)C(F)F)N(CC)CC (stereo not drawn) | 11.2% |
| O=C(COC(=O)Cn1c(C(F)(F)F)nc2ccccc21)Nc1ccc2c(c1)OCCO2 | 11.9% |
| Cc1nc2sccn2c(=O)c1S(=O)(=O)Nc1ccc(N2CCOCC2)c(Cl)c1 | 19.9% |
| CCCCCCc1cc2cc(C(=O)NCc3ccccc3)c(=N)oc2cc1O | 8.45% |
| COc1ccccc1CNC(=O)COC(=O)CC1CC2CCC1C2 (stereo not drawn) | 9.87% |
| Cc1ccccc1CN1CCN(C(=O)c2cc(-c3ccncc3)nc3ccccc23)CC1 | -16.6% |
| O=S(=O)(c1cccc(F)c1)N1CCN(c2ncnc3scc(-c4ccc(F)cc4)c23)CC1 | 5.52% |
| CCCC(c1nnnn1CC1CCCO1)N1CCN(c2cc(Cl)ccc2C)CC1.Cl (stereo not drawn) | 5.82% |
| CSc1ncccc1C(=O)NCCc1ccccc1F | 13.9% |
| CC(CNc1ccccc1O)C(=O)O (stereo not drawn) | 12.5% |
| COc1ccc(CC(=O)OCC(=O)Nc2ccc(Br)cc2)cc1 | 4.4% |
| Cc1ccc(C(=O)CNc2ccc(Cl)cc2)cc1 | 16.4% |
| COc1cc(/C=C2/C(=N)N3C(=NC2=O)SN=C3S(=O)(=O)C(C)C)ccc1OS(=O)(=O)c1ccccc1 | 16.8% |
| O=C(Nn1c(=S)[nH]c2ccccc2c1=O)c1ccncc1 | 14.3% |
| COc1ccc(C(=O)CC(=O)c2ccc(F)cc2)cc1 | 15.9% |
| C=CC(=O)NC(C)(C)Cc1ccccc1 | 6.71% |
| CCCS(=O)(=O)N1CCCC(C(=O)NCCCOC(C)C)C1 (stereo not drawn) | 5.11% |
| Cc1ccc(NC(=O)C2CCN(S(=O)(=O)c3cccs3)CC2)cc1C | -43.6% |
| FC(F)(F)c1ccccc1NC1=NCCCS1 | 7.14% |

Source: PMC4336329 (PLoS ONE, 2015)
